Measured values as given in PubChem BioAssay (NCI).
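Assay format: 96-well plates, 48-hour exposure. At the GI50, growth is halved.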 Certain results were filed several times, with different values. Only these are listed. The source may hold further records. For some of these results: The records of an entry repeat one measurement in other runs, samples, wells, individuals or studies. What stands in brackets tells the records apart. The letters are not those of the source and start again with each entry.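 TGI is the concentration that stops growth completely.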 For some of these results: A record mostly stands for its own series of concentrations, which the source does not state; a value can be the end of its range.

Assays:
Experiment in all cases: NCI anticancer screen, dose series, 48 h
[1] = tested on: SR leukemia
[2] = tested on: COLO 205 colon
[3] = tested on: MCF7 breast
[4] = tested on: MALME-3M melanoma
[5] = tested on: OVCAR-8 ovarian
[6] = tested on: SK-MEL-2 melanoma
[7] = tested on: NCI/ADR-RES ovarian
[8] = tested on: SN12C renal
[9] = tested on: MDA-N
[10] = tested on: MOLT-4 leukemia
[11] = tested on: OVCAR-5 ovarian
[12] = tested on: CCRF-CEM leukemia
[13] = tested on: HL-60(TB) leukemia
[14] = tested on: UACC-62 melanoma
[15] = tested on: HOP-92 NSCLC
[16] = tested on: SF-268 CNS
[17] = tested on: HS 578T breast
[18] = tested on: NCI-H522 lung
[19] = tested on: MDA-MB-435
[20] = tested on: UO-31 renal
[21] = tested on: A498 renal
[22] = tested on: TK-10 renal
[23] = tested on: SK-MEL-28 melanoma
[24] = tested on: SW-620 colon
[25] = tested on: IGROV1 ovarian
[26] = tested on: OVCAR-4 ovarian
[27] = tested on: MDA-MB-231 breast
[28] = tested on: SK-OV-3 ovarian
[29] = tested on: SNB-19 CNS
[30] = tested on: K-562 leukemia
[31] = tested on: HCT-15 colon
[32] = tested on: KM12 colon
[33] = tested on: SF-295 CNS
[34] = tested on: ACHN renal
[35] = tested on: EKVX NSCLC
[36] = tested on: NCI-H23 lung
[37] = tested on: CAKI-1 renal
[38] = tested on: SNB-75 CNS
[39] = tested on: T-47D breast
[40] = tested on: RPMI-8226 leukemia
[41] = tested on: RXF 393 renal

O=C(Nc1cccc(Cl)c1)Nc1ncc(CCNc2ncnc3ccsc23)s1
GI50 [1]: 1.96 µM [sample A, 1 test] and 29.8 nM [sample B, 1 test]

COc1cc2cc(C(=O)N3CC(CCl)c4c3cc(NC(=O)C(C)(C)c3ccccc3[N+](=O)[O-])c3ccccc43)[nH]c2c(OC)c1OC (centres undefined)
TGI [2]: 11.7 µM and > 600 µM | TGI [3]: 724 nM and 213 µM | TGI [4]: 16.3 µM and 341 µM | TGI [5]: 5.6 µM and > 600 µM | TGI [6]: 13.7 µM and 236 µM | TGI [7]: 3.74 µM and 93 µM | TGI [8]: 50 µM and > 600 µM | TGI [9]: 16.8 µM and 377 µM | TGI [10]: 50 µM and > 600 µM | TGI [11]: 22.4 µM and > 600 µM | TGI [12]: 1.3 µM and > 600 µM | TGI [13]: 50 µM and > 600 µM | TGI [14]: 9.73 µM and 112 µM | TGI [15]: 17.8 µM and > 600 µM | TGI [16]: 50 µM and > 600 µM | TGI [17]: 29.9 µM and > 600 µM | TGI [18]: 9.38 µM and 306 µM | TGI [19]: 8.12 µM and > 600 µM | TGI [20]: 3.45 µM and 119 µM | TGI [21]: 2.63 µM and 294 µM | TGI [22]: 26.3 µM and > 600 µM | TGI [23]: 17 µM and > 600 µM | TGI [24]: 45.9 µM and > 600 µM | TGI [25]: 7.58 µM and 239 µM | TGI [26]: 30.8 µM and 322 µM | TGI [27]: 11.6 µM and > 600 µM | TGI [28]: 28.4 µM and 430 µM | TGI [29]: 50 µM and > 600 µM | TGI [30]: 50 µM and > 600 µM | TGI [31]: 12.4 µM and 182 µM | TGI [32]: 8.49 µM and 283 µM | TGI [33]: 17 µM and 278 µM | TGI [34]: 1.81 µM and 22.1 µM | TGI [35]: 50 µM and > 600 µM | TGI [36]: 1.77 µM and 83.8 µM | TGI [37]: 219 nM and > 600 µM | TGI [38]: 24.7 µM and > 600 µM | TGI [39]: 50 µM and > 600 µM

CC[C@](C)(O)C(=O)O[C@H]1C(=O)O[C@@H]2C[C@H]3C(C)=CC(=O)[C@@H](O)[C@]3(C)[C@H]3[C@@]4(O)OC[C@]32[C@@H]1[C@@H](C)[C@H]4O
TGI [3]: 18.7 µM [mean of 2 tests] and 647 nM [mean of 3 tests] | TGI [7]: 288 nM and 23.8 µM | TGI [10]: 9.06 µM and 77.5 nM | TGI [12]: 14.4 µM and 256 nM | TGI [15]: 923 nM and 54.4 nM | TGI [24]: 3.97 µM and 393 nM | TGI [30]: 16.8 µM and 132 nM | TGI [35]: 10.3 µM and 208 nM | TGI [40]: 2.02 µM and 103 nM | TGI [41]: 1.43 µM and 105 nM
